# Results from paper PMC4336329 (PLoS ONE, 2015).
# Out of some 310,000 compounds screened, about 2,200 (0.71%) showed an effect of 50% or more. Effects have a minus sign here. This is one part of the list.
# Biological target: human ether-à-go-go-related gene (hERG) potassium channel (human, UniProt Q12809)
# Assay: primary screen, population patch clamp on CHO cells stably expressing hERG
# Sequence of human ether-à-go-go-related gene (hERG) potassium channel (Q12809 whole entry, looked up): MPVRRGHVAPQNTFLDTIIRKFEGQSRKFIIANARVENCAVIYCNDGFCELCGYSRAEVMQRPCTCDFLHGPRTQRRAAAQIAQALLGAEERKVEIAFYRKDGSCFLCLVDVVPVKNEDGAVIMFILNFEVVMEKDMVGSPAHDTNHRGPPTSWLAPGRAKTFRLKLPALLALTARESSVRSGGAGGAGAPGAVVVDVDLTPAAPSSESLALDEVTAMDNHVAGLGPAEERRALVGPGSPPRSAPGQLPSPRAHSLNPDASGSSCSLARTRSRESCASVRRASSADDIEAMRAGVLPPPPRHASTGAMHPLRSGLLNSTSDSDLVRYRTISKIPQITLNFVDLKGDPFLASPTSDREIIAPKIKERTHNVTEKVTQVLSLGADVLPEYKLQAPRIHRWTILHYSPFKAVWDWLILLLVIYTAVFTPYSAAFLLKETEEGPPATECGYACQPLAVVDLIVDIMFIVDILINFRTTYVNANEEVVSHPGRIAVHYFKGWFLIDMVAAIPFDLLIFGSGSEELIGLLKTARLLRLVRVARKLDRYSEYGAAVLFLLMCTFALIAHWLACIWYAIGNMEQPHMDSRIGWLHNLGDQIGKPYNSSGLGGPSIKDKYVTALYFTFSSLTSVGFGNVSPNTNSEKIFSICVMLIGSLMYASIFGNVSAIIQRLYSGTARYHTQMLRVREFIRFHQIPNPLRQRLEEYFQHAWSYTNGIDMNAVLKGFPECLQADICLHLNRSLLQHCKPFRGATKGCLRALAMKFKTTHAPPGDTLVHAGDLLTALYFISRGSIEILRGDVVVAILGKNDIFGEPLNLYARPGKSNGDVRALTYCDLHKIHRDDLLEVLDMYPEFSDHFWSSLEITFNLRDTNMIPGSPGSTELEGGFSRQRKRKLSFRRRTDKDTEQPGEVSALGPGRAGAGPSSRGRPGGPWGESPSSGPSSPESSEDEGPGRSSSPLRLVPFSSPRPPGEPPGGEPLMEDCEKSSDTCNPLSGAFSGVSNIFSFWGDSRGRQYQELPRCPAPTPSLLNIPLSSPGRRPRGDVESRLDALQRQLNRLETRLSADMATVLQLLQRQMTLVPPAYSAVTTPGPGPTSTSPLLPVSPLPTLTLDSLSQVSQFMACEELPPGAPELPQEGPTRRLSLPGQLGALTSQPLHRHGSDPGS
row,Structure (SMILES),"hERG current change (%, negative = inhibition) at 1uM"
1,CCCn1c(SCC(=O)NC2CCC(C)CC2)n[nH]c1=O (centres unmarked),17%
2,CC(Sc1ccccc1)C(=O)NCC(c1ccco1)N1CCCCC1 (centres unmarked),12.8%
3,N#CCSc1ccsc1C(=O)Nc1ccc(F)cc1,-5.24%
4,CCCOC(=O)c1ccc(O)c(OC)c1,13.1%
5,Cc1[nH]c2c(Cl)cccc2c1CCNC(=O)C1CCCCC1C(=O)OCC(F)(F)F (centres unmarked),10.2%
6,COc1ccccc1CNC(=O)[C@H](C)NC(=O)C1CCN(C(=O)[C@@H]2CCCN2C(=O)OC(C)(C)C)CC1,4.82%
7,COc1ccc2[nH]c(C(=O)N3CCN(C)CC3)c(C)c2c1,9.57%
8,COc1ccc(/C=C(\C#N)C(=O)OCC(=O)Nc2ccc(C(C)(C)C)cc2)cc1,7.2%
9,Br.CC1CCN(CC(=O)c2ccccc2Cl)CC1,9.96%
10,CCN(CC)CCCN1C(=O)C(O)=C(C(=O)c2ccco2)C1c1ccc(OC(C)C)cc1 (centres unmarked),2.89%
11,COC(=O)c1sccc1NC(=S)OC,10.8%
12,O=C(COC(=O)CSc1ccc(F)cc1)NNC(=O)c1ccc([N+](=O)[O-])cc1,-7.4%
13,O=S(=O)(c1ccccc1)c1nc(NC2CC2)sc1Cl,8.51%
14,O=C(NCCc1ccc(C(F)(F)F)cc1)c1ccc(Cl)nc1,12%
15,COc1ccc(S(=O)(=O)N(C)CC(=O)Nc2ccccc2OC)cc1,2.01%
16,Cn1c(SCC(=O)N2CCN(Cc3ccccc3)CC2)nnc1-c1ccncc1,-1.06%
17,CSc1nc(C)cc(OCCO)n1,11.1%
18,Oc1ccc(/C=N/Nc2ncc(Br)cn2)c(O)c1,8.14%
19,COc1ccc(C2CC(=O)c3cnc(N4CCc5ccccc54)nc3C2)c(OC)c1 (centres unmarked),8.5%
20,CCOc1ccc(/C=N/NC(=O)CN2CCCCC2)cc1OCC,6.57%
21,COc1ccc(NC(=O)CN2CCN(CC(=O)Nc3ccc(F)cc3)CC2)c(OC)c1,-83.3%
22,COc1cc(NC(=O)c2onc(C)c2Cl)cc(OC)c1OC,8.4%
23,O=S(=O)(Nc1ccc(Oc2ncccn2)c(Cl)c1)c1ccc(F)cc1,11.2%
24,COC(=O)c1ccc(C)c(NC(=O)c2ccc(CN3CCc4ccccc4C3)cc2)c1,11.6%
25,COc1ccccc1CCC(=O)OC(C)C(=O)Nc1c(C)n(C)n(-c2ccccc2)c1=O (centres unmarked),11.1%
26,COc1ccc(-c2nc(CSCC(=O)NCC3CCCO3)c(C)o2)cc1OC (centres unmarked),-2.41%
